The campaign covered roughly 310,000 compounds. About 14,000 (4.5%) showed an effect of 50% or more. Effects have a minus sign here. The list shows a part of the results.
Target: human ether-à-go-go-related gene (hERG) potassium channel (human, UniProt Q12809)
Test: primary screen, population patch clamp on CHO cells stably expressing hERG
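Further: peak tail current of the secondary pulse compared with the same well before compound.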

human ether-à-go-go-related gene (hERG) potassium channel, sequence (Q12809 whole entry, looked up): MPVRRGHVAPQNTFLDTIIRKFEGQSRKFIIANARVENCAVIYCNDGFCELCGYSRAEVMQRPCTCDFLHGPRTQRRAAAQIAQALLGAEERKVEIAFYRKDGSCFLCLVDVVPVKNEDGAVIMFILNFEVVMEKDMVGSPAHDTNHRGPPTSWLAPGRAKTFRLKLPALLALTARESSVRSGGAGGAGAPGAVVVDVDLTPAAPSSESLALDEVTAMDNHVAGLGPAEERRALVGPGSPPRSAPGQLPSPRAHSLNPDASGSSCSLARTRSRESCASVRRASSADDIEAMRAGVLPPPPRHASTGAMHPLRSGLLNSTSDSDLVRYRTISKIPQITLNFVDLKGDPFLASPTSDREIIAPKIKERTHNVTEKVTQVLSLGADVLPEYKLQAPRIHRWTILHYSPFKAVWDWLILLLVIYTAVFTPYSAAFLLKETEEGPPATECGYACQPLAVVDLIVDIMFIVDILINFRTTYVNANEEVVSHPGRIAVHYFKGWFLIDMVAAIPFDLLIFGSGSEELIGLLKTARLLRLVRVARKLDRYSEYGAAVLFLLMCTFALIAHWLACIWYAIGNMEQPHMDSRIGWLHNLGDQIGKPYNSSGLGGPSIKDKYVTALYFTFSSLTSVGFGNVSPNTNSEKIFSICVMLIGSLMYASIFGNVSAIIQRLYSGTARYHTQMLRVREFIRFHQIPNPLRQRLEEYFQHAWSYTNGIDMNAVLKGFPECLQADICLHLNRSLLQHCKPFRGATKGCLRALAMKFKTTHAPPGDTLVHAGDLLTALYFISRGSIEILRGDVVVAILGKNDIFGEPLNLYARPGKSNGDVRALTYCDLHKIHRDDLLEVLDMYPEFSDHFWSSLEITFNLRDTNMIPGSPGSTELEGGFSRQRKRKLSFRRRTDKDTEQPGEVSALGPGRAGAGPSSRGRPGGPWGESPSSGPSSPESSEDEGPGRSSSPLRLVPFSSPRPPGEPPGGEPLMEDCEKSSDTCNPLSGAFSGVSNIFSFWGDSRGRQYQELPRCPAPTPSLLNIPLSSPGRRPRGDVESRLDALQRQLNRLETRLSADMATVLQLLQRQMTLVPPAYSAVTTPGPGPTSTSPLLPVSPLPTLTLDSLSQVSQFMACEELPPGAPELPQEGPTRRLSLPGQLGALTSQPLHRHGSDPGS

SMILES	hERG current change (%, negative = inhibition) at 10uM [%]
CCc1ccccc1NC(=O)CNC(=O)CCNC(=O)Nc1ccccc1	-9.35
CCC1=C(OC(=O)N(CC)CC)N2C(=O)OC(=NCCc3c[nH]c4ccccc34)[C@]2(C)[C@H]2C1=CC[C@H]1C(=O)N(CC(=O)OC)C(=O)[C@H]12	-2.11
Cc1cccc2nc(-c3ccco3)oc(=O)c12	25.4
Cc1ccnc(NC(=O)c2ccc(NS(=O)(=O)/C=C/c3ccccc3)cc2)c1	-6.2
CC(=O)Nc1ccc(NC(=O)C(C)OC(=O)CCCOc2ccc(Cl)c(C)c2)cc1 (centres unmarked)	24.9
CCOC(=O)c1cc2sccc2n1CC(=O)N1CCc2ccccc21	1.9
O=C(Nc1cccc(S(=O)(=O)N2CCCCC2)c1)C1CC(=O)N(Cc2ccccc2)C1 (centres unmarked)	-23.9
O=C(c1cc(-c2ccc(Br)cc2)on1)N1CCc2ccccc2C1	21.7
O=C(Nc1ccncc1)c1ccccc1[N+](=O)[O-]	25.4
Cc1cc(C)cc(NC(=O)C2CC(=O)n3ncnc3N2)c1 (centres unmarked)	3.95
CC1CCCC(NC(=O)CCCn2ncn3c(cc4occc43)c2=O)C1C (centres unmarked)	-4.88
COC(=O)c1ccccc1NS(=O)(=O)c1ccc2c3c(cccc13)C(=O)N2	-2.31
Br.C=CCN1CCc2cc(O)c(O)cc2C(c2ccccc2)C1 (centres unmarked)	-23.9
CCN(C(=O)c1ccccc1)c1ccc([N+](=O)[O-])cc1	-24.3
COCCCN(CCNC(=O)c1ccc(NC2=NC3CS(=O)(=O)CC3S2)cc1)Cc1ccco1 (centres unmarked)	-4.81
COc1ccc(CCNC(=O)CSCc2c(F)cccc2Cl)cc1OC	-2.8
COc1ccc(S(=O)(=O)NC2CCCC2)cc1C(N)=O	4.15
O=c1n(-c2cccc(Cl)c2)c(=O)n2n1CCC2	-6.81
CC(C)OC(=O)CSc1nnc(-c2ccc(Cl)cc2Cl)o1	-7.24
COc1ccc(/C(C)=N/Nc2nc(C)cc(-c3ccccc3)n2)cc1	11.5
COCc1cc(C(C)=O)ccc1OCC(=O)Nc1ccc(NC(C)=O)cc1	22.3
Cc1ccc2cc(CN(Cc3ccco3)C(=O)c3ccccc3)c(=O)[nH]c2c1C	7.42
CCN(CC)S(=O)(=O)c1cccc(C(=O)Nc2ccc(S(=O)(=O)NC3=NCCCCC3)cc2)c1	0.391

SMILES	hERG current change (%, negative = inhibition) at 10uM [%]
CCOc1ncccc1C(=O)Nc1cccc(-c2nc3cccnc3s2)c1	5.74
COc1ccc(CCNS(=O)(=O)c2ccc(Br)s2)cc1	-5.73
COc1cccc(CN2CC(C(=O)NC3CCC(O)CC3)CCC2=O)c1 (centres unmarked)	9.7
Cc1nn(C(=O)CCC(=O)NCc2ccc(OC(C)C)cc2)c2ccccc12	11.2
COc1ccccc1C1C([N+](=O)[O-])=C(N)Oc2c1c(=O)oc1ccccc21 (centres unmarked)	13.2
CC1=CC(C)(C)[N+](C)(C)c2ccc(C)cc21.[I-]	15.5
CCc1cc(=O)[nH]c(SCc2cccnc2)n1	15.6
CCOC(=O)c1ccc(-c2c(-c3ccc(OC)cc3)oc(=O)c3cc(OC)c(OC)cc23)cc1F	13.1
Cc1cc(C(=O)O)c(C)n1C1CC1	31.8
[O-][n+]1ccccc1SCc1ccccc1	9.4
C=CCOc1nc2c(c(=O)n(C)c(=O)n2C)n1Cc1ccccc1Cl	-6.73
O=C(CCCN1C(=O)c2cccc3cccc(c23)C1=O)N1CCN(Cc2ccc3c(c2)OCO3)CC1	-21.3
COc1ccc(-c2nc(C(N)=O)c3[nH]c(=O)n(-c4ccccc4OC)c3n2)c(OC)c1	-1.91
CCCCCC[N+](C)(C)CC/C=C1/c2ccccc2Sc2ccc(Cl)cc21.[Br-]	-75.2
CC1(C)CC(=O)C(=Cc2cn(CCC#N)nc2-c2ccc(Cl)cc2)C(=O)C1	-12.1
CCOC(=O)c1c(NC(=O)Nc2ccc(Cl)cc2)sc(C)c1C	3.38
CCOc1ccc(C(=O)OCC(=O)c2c(N)n(C)c(=O)n(C)c2=O)cc1OCC	6.21
CC(NC(=O)CN(C)Cc1nc2ccccc2c(=O)[nH]1)c1ccccc1 (centres unmarked)	2.59
Cc1cc(C)n2nc(C(=O)OCC(=O)N(C)CC(=O)Nc3ccc(F)cc3)nc2n1	5.94
Cc1cc(C)c(N=C2C(=O)Nc3ccccc32)c(C)c1	10.5
CCOC(=O)C1CCN(C2=C(NS(=O)(=O)c3ccc(Br)cc3)C(=O)c3ccccc3C2=O)CC1	4.23
CCOC(=O)N/N=C/c1c[nH]c2ccccc12	3.65
CCn1c(SCc2cc(=O)[nH]c3ccccc23)nnc1C1CC1	8.48

SMILES	hERG current change (%, negative = inhibition) at 10uM [%]
CN(C)C(=O)CSc1nnc(-c2cccs2)n1-c1ccccc1	32.9
Cc1ccc(S(=O)(=O)CCN2CCN(c3ccccn3)CC2)cc1	2.42
O=C(CN1CCC(C(=O)c2ccc3c(c2)OCCO3)CC1)Nc1ccccc1C(F)(F)F	1.17
CCc1ccccc1NC(=O)c1ccc(F)c(S(=O)(=O)N2CCC(C(N)=O)CC2)c1	17
CC1CCCCC1NC(=O)CSc1nnnn1-c1ccccc1 (centres unmarked)	7.97
Cc1cccc(C(=O)NCC(=O)NCC2COc3ccccc3O2)c1 (centres unmarked)	-17.6
CC12CCC(C/C1=N\OC(=O)c1ccc(F)cc1)C2(C)C (centres unmarked)	-13.9
CCOc1ccc(CN(C)C(=O)CCl)cc1	-1.2
Cc1cccc(C)c1NC(=O)C1CCCCN1C.Cl (centres unmarked)	17.5
Cc1cccnc1NC(=O)C(C)N1C(=O)c2ccccc2C1=O (centres unmarked)	15
C=CCn1c(=NC(=O)c2cccs2)sc2cccc(OC)c21	14.7
NS(=O)(=O)c1ccc(N2N=C(c3ccc(Br)cc3)CC2c2ccc(F)cc2)cc1 (centres unmarked)	14.3
CC1CCN(C(=O)c2cc(F)c(F)cc2Cl)CC1	7.62
O=C(OCc1ccccc1)N1CCc2ccccc21	-8.46
O=C(NCCCN1CCOCC1)c1onc(CSc2ccccc2)c1C(=O)NCCCN1CCOCC1	4.97
O=C(CNC(=O)c1cccs1)OCC(=O)c1ccc([N+](=O)[O-])cc1	27
Cc1ccc(C)c(OCCCC(=O)O)c1	3.97
COc1cc(NC(=O)C23CC4CC(C2)CC(n2nnc(C)n2)(C4)C3)c(OC)cc1Cl	4.76
O=S(=O)(c1cnc(Cl)c(Cl)c1)N1CCN(c2ncccn2)CC1	2.85
COc1ccc(NC(=S)N2CCCCCC2)cc1OC	22.8
COC(=O)C1=C(c2ccc(F)cc2OCc2ccccc2)C[C@@H]2CC[C@H]1N2C(=O)NC1CCN(Cc2ccccc2)CC1	2.18
COc1ccccc1OCC(O)CNCc1ccc2c(c1)OCO2 (centres unmarked)	-24.2
COc1cccc(CCNC(=O)CC2C(=O)NCCN2CC(C)(C)C)c1 (centres unmarked)	15.8

SMILES	hERG current change (%, negative = inhibition) at 10uM [%]
COC(=O)c1ccc2c(=O)n(Cc3ccc(C(=O)NC(C)C)cc3)c(=S)[nH]c2c1	23.5
O=C(CNC(=S)NC(=O)c1ccco1)c1ccccc1	-15.3
CC(C)C(=O)c1ccc(O)c(O)c1	-2.09
COc1cccc(NC(=O)C2CCCN(S(=O)(=O)c3cccc4cccnc34)C2)c1 (centres unmarked)	-9.16
O=S(=O)(c1ccc(N2CC=C(c3ccccc3)CC2)nc1)N1CCCC1	-3.38
Nc1[nH]c(=O)[nH]c(=O)c1N=Nc1ccc(C(=O)O)cc1	20.4
CCCCn1c(N)c(N(CC(C)C)C(=O)CSC(C)C(=O)Nc2cc(C)on2)c(=O)[nH]c1=O (centres unmarked)	9.14
Cc1cc(C)c(C#N)c(SCC(=O)Nc2ccccc2C(N)=O)n1	-4.85
CC1(C)CC(N(Cc2cccs2)C(=O)c2ccco2)CCO1 (centres unmarked)	-2.33
COc1ccc(Cl)cc1NC(=O)N1CCN(C2CCCCC2)CC1	-22.2
CC(=O)c1ccccc1C(=O)N1CCCC(CCC(=O)N2CCN(c3ccccn3)CC2)C1 (centres unmarked)	17.9
Cc1ccc(O)c(NS(=O)(=O)c2cccc3nsnc23)c1	-18.1
CCOC(=O)c1ccccc1C(=O)N1CCOCCOCCOCC1	6.35
Cc1cc(C(=O)NCCC2=CCCCC2)c(C)o1	7.75
COc1ccc([C@H]2CC(=O)C=C(c3ccccc3)C2)cc1OC	-3.04
COc1ccc(C(Nc2cc(C)ccn2)c2ccc3ccc(C)nc3c2O)cc1 (centres unmarked)	-15.3
CC(C)Cn1nc(-c2ccccc2)c2ccccc2c1=O	20.1
CCC(=O)c1ccc(CCCCCC(=O)O)s1	5.76
COc1ccc(OC)c(CNC(=O)CCc2cn(C)c3ccccc23)c1	5.44
CC(C)[C@H](NC(=O)N1CCn2c1nc1ccccc12)C(=O)NCc1ccc2c(c1)OCO2	-0.903

— paper PMC4336329 (PLoS ONE, 2015)
